# Results reported in PubChem BioAssay AID463173 (ICCB-Longwood Screening Facility, Harvard Medical School, 2010).
# About 4,300 (8.3%) of roughly 52,000 compounds were called active. Rule as the data show it: active = survival mostly below about 52% (no sharp cut-off); inactive = mostly above about 56%. This is one part of the list.
# System: DeltatarO mutant
# Assay: S. aureus survival, RN4220 and DeltatarO strains – OD600, teichoic acid synthesis inhibitors, primary screen (AID 463173)
# Settings: S. aureus RN4220 wild type/DeltatarO growth, OD600, 18 h, active compounds read low, screened at 18.75 µg/mL (by protocol)
row,Structure (SMILES),survival
1,Cc1ccc(NC(=O)CC2Sc3ccccc3NC2=O)c(C)c1 (stereo not given),inactive: 137%
2,CCN(C(=O)c1cc(S(=O)(=O)N2CCCCC2)c[nH]1)c1ccc(OC)cc1,inactive: 77%
3,COc1ccc(-c2nc(SCC(=O)NC3CCCC3)c(-c3ccccc3)[nH]2)cc1OC,inactive: 65%
4,O=C(N1CCCCC1)N1c2ccccc2C=Cc2ccccc21,inactive: 99%
5,CCOC(=O)C1CCN(C(=O)c2ccc3c(c2)sc2nc(-c4ccc(OCC)cc4)cn23)CC1,inactive: 69%
6,Cc1ccc(NC(=O)Cn2ccn(Cc3ccc(Cl)cc3)c(=O)c2=O)cc1C,inactive: 111%
7,CC(=O)c1cccc(-n2c(CCC(=O)O)ccc2-c2ccccc2)c1,inactive: 74%
8,COc1ccc(OC)c(Nc2cc(C(=O)NCc3ccccc3)c3ccccc3n2)c1,inactive: 104%
9,CCC(=O)Nc1nc(-c2ccc3c(c2)CCN3C(C)=O)cs1,inactive: 95%
10,Cc1ccc(-n2ncc3c(Nc4ccc5c(c4)OCCO5)ncnc32)cc1C,inactive: 85%
11,CCOc1ccccc1C(=O)N1CCc2cc(OC)c(OC)cc2C1COc1ccc2c(C)cc(=O)oc2c1 (stereo not given),inactive: 66%
12,Cn1c(NCc2ccccc2F)nc2ccccc21,inactive: 93%
13,COc1cc(Cl)c(C)cc1NC(=O)CSCc1nc(-c2ccc(OC)c(OC)c2)no1,inactive: 102%
14,Cc1ccc(C)c(Cn2cc(CCC(=O)NC3CCCCC3)c3ccccc32)c1,inactive: 86%
15,N=c1n(CCO)c2ccccc2n1CCOc1ccc(F)cc1,active: 40%
16,CC(C)c1nnc(SCC(=O)NC(C)(C)C)n1C,inactive: 89%
17,COc1ccc(-c2cc(C(=O)Oc3ccc(Cl)cc3)c3ccccc3n2)cc1,active: 49%
18,Cc1cc(C)cc(N(CC(=O)Nc2ccc(C(F)(F)F)cc2)S(=O)(=O)c2c(C)[nH]c(=O)[nH]c2=O)c1,inactive: 48%
19,CCOc1ccc(NC(=O)NC(CC)Cn2nnc3ccccc3c2=O)cc1 (stereo not given),inactive: 107%
20,Cc1ccc(OCCSc2nc3ccccc3n2CCC(=O)O)cc1C,active: 47%
21,CCN1CCN(C(c2ccc(Cl)cc2)c2c(O)cc(C)n(CCOC)c2=O)CC1 (stereo not given),inactive: 75%
22,Cc1nc2ncnn2c(C)c1CCC(=O)NCc1ccc(Cl)cc1,inactive: 92%
23,O=C(CSc1ncc(S(=O)(=O)c2ccc(Br)cc2)c(=O)[nH]1)NCc1ccccc1Cl,inactive: 60%

row,Structure (SMILES),survival
1,Cc1ccccc1NC(=O)c1ccc(NC(=O)N2CCSc3ncccc32)cc1,active: -2%
2,COc1ccc(OC)c(-n2c(=O)[nH]c3cc(C(=O)NCCc4ccc(OC)c(OC)c4)ccc3c2=O)c1,inactive: 76%
3,COc1cccc(NC(=O)c2sc(-n3nc(C)c(Cc4ccccc4Cl)c3C)nc2C)c1,inactive: 94%
4,CC1CCN(S(=O)(=O)c2ccc3c(c2)N(CC(=O)NCc2ccccc2Cl)C(=O)CO3)CC1,inactive: 116%
5,COc1ccc(NCc2nc3ccccc3n2CCOc2ccccc2C)cc1,active: 32%
6,Cc1cc(N2CCCC2)nc(SCC(=O)c2ccccc2)n1,inactive: 77%
7,COc1cccc(CNC(=O)C2CCC(CNS(=O)(=O)c3cccs3)CC2)c1 (stereo not given),inactive: 74%
8,O=c1c(S(=O)(=O)c2ccccc2)cn(Cc2ccc(F)cc2)c2cc(N3CCCC3)c(F)cc12,inactive: 74%
9,Cc1ccc(OCc2cc(=O)n3c4c(sc3n2)CCCC4)c(C)c1,inactive: 88%
10,CC(=O)NC1C(OC2=CC3OC(=O)CC(C)=C3C=C2)OC(CO)C(O)C1O (stereo not given),inactive: 77%
11,CCCC(=O)N(c1ccc2oc3c(c2c1)CCCC3)S(=O)(=O)c1ccc(CC)cc1,active: 39%
12,O=C(NCCS(=O)(=O)N1CCN(c2ccccc2F)CC1)c1cc(=O)c2ccccc2o1,inactive: 71%
13,O=C(Nc1ccc(F)cc1)c1ccc(-n2cnc3cccnc32)cc1,inactive: 90%
14,O=C(NCCc1ccc(Cl)cc1)c1ccc(CS(=O)(=O)Cc2ccc(F)cc2)o1,inactive: 92%
15,COC(=O)c1c(SC)nc2ccccc2c1OCc1cccc(C)c1,inactive: 93%
16,S=c1[nH]nc(CCn2c3ccccc3c3ccccc32)n1-c1ccccc1,inactive: 69%
17,Cc1ccc(N(C)C(=O)Cn2nc(Cc3ccncc3)c3ccccc3c2=O)cc1C,inactive: 84%
18,Cc1ccc(CNS(=O)(=O)c2ccc(F)c(C(=O)Nc3ccc(C)c(F)c3)c2)cc1,active: 46%
19,COc1ccccc1CCNC(=O)c1cc2c(=O)n3cccc(C)c3nc2n1C,inactive: 65%
20,CNC(=O)C1CCC(Cn2c(=O)c3sccc3n(Cc3ccccc3)c2=O)CC1 (stereo not given),inactive: 86%
21,Cc1csc2nc(COC(=O)c3ccccc3NC(=O)c3ccccc3Cl)cc(=O)n12,inactive: 68%
22,CCc1ccc(NC(=O)N2CC=C(c3c[nH]c4ccccc34)CC2)cc1,active: 39%
23,CCOc1ccc(-c2nc(Cn3c(=O)cc(-c4ccccc4)c4c(C)nn(C)c43)c(C)o2)cc1OC,inactive: 126%

row,Structure (SMILES),survival
1,COc1cc(OC)c(NC(=O)C(C)n2c(=O)cc(-c3ccccc3)c3c(C)nn(C)c32)cc1Cl (stereo not given),inactive: 83%
2,FC(F)(F)Oc1ccc(-n2[nH]nnc2=S)cc1,inactive: 83%
3,Cc1ccc(CNC(=O)C2CCN(c3nn4cc(-c5ccc(F)cc5)nc4s3)CC2)cc1,inactive: 87%
4,CCN(CC)c1ccc(NC(=O)CCS(=O)(=O)c2cccc3nsnc23)c(C)c1,active: 44%
5,CCC(CC)C(=O)Nc1cccc(-c2nc3cccnc3s2)c1,inactive: 80%
6,COc1cccc(COC(=O)c2nn(-c3ccccc3)nc2N)c1,active: 15%
7,Cc1cccc(S(=O)(=O)c2cn(Cc3ccccc3)c3cc(N4CCC(C)CC4)c(F)cc3c2=O)c1,inactive: 91%
8,CCn1c(Oc2ccc(F)cc2F)nc2c1c(=O)n(C)c(=O)n2C,inactive: 72%
9,CCc1cc2c(cc3c(=O)n(CC(=O)NCc4cccc(Cl)c4)nc(CC)n32)s1,inactive: 91%
10,CCC1=Nc2cc(C(=O)NCCc3ccccc3)ccc2Sc2ccc(Cl)cc21,inactive: 74%
11,COc1ccc(Nc2cc(C(=O)NCCCN(C)Cc3ccccc3)c3ccccc3n2)cc1OC,inactive: 108%
12,COc1cccc(CNC(=O)C(=O)NCC(c2cccs2)S(=O)(=O)c2cccs2)c1 (stereo not given),inactive: 94%
13,COc1ccc(-n2nc3cc(C)c(NC(=O)COc4cccc(C)c4)cc3n2)cc1,inactive: 56%
14,Cc1cc(S(=O)(=O)Nc2cc3c(cc2C)n(C)c(=O)c(=O)n3C)ccc1F,inactive: 84%
15,CCSC1=NC2(CCN(C(=O)NC3CCCCC3)CC2)N=C1c1ccc(C)cc1,inactive: 68%
16,Cc1ccccc1NC(=O)CSc1ncc2c(n1)-c1ccccc1N(C)S2(=O)=O,inactive: 102%
17,C1CCC2(C1)OCC1(CO2)COC2(CCCC2)OC1,inactive: 94%
18,CCOc1ccccc1NC(=O)c1c(NC(=O)C(C)Oc2cccc(Cl)c2)sc2c1CCCCC2 (stereo not given),inactive: 64%
19,Cc1cc(C)c2c(n1)nn1c(C)c(CCC(=O)Nc3ccc(C)c(Cl)c3)c(C)nc21,inactive: 84%
20,CN=c1sc2ccccc2n1CC(O)c1ccccc1 (stereo not given),inactive: 103%
21,Cc1cn2c(=O)cc(COC(=O)c3cccc(NC(=O)C(C)Oc4ccccc4)c3)nc2s1 (stereo not given),inactive: 95%
22,CCCCSCCCNC(=O)c1cn(CC)c2ccc(S(=O)(=O)N3CCOCC3)cc2c1=O,inactive: 61%
23,CC1=CC(c2ccccc2)NC(=S)N1 (stereo not given),inactive: 78%

row,Structure (SMILES),survival
1,CCOc1ccc(NC(=O)CSc2nnc3c(C)cc4ccccc4n23)cc1,inactive: 137%
2,COc1ccc(S(=O)(=O)N2CCC(C(=O)Nc3ccc(Oc4ccccc4)cc3)CC2)cc1OC,inactive: 57%
3,COc1ccc(NC(=O)c2ccc(-c3nc(COc4ccccc4)c(C)o3)cc2)cc1,inactive: 75%
4,O=C(O)CCN1C(=O)CSC1=O,inactive: 72%
5,COc1ccc(NC(=O)CSc2nc3ccccc3n2CC(=O)NCc2ccc(F)cc2)cc1,active: -5%
6,CC(C)NC(=O)c1ccc(OC2CSC2)cc1,inactive: 98%
7,COC(=O)c1ccc(NC(=O)c2cc3cc(C)ccc3n2C)cc1,inactive: 66%
8,Cc1ccccc1OCC(=O)Nc1ccc(OCc2cc(=O)n3ccccc3n2)cc1,inactive: 77%
9,COc1ccc(Cl)cc1NC(=O)C1CCCN(S(=O)(=O)c2ccc3c(c2)CCCC(=O)N3)C1 (stereo not given),inactive: 119%
10,Cc1ccc(CNC(=O)c2ccc3oc(=O)n(Cc4ccccc4)c3c2)cc1,inactive: 64%
11,O=C(CSc1nc2c(c(=O)[nH]1)CN(Cc1ccc3c(c1)OCO3)CC2)Nc1cc(F)ccc1F,inactive: 79%
12,CCC1Oc2ccc(C)cc2N(CC(=O)NC(C)C)C1=O (stereo not given),inactive: 100%
13,COC(=O)c1ccccc1NC(=O)Cn1nc(C)c2nn(-c3ccc(Cl)cc3)c(C)c2c1=O,inactive: 94%
14,Cc1cccc(NC(c2cccc(Cl)c2)c2ccc3cccnc3c2O)n1 (stereo not given),active: 2%
15,COc1cc(NC(=O)Nc2nnc(N3CCCCC3)s2)cc(OC)c1,inactive: 68%
16,CC1CCc2nc3ccc(S(=O)(=O)N4CCC(C(=O)NCc5ccccc5Cl)CC4)cc3c(C(=O)O)c2C1 (stereo not given),inactive: 99%
17,Cc1nn(-c2ccccc2)c2c1N(CCCC(=O)NCc1ccc(OC(C)C)cc1)C(=O)CS2,inactive: 84%
18,O=c1c2[nH]c3ccccc3c2nc(SCc2ccccc2F)n1-c1ccc(F)cc1,inactive: 83%
19,CCc1ccccc1NC(=O)Cn1nc(-c2cc(C)ccc2C)c2c(c1=O)CCCC2,active: 41%
20,O=C1C2C3c4ccccc4C(c4ccccc43)C2C(=O)N1CN1CCOCC1 (stereo not given),inactive: 78%
21,Cc1ccc(Cn2cc(S(=O)(=O)c3ccccc3)c(=O)c3cc(F)c(N4CCOCC4)cc32)cc1,inactive: 85%
